Source: PubChem BioAssay AID686979 (National Center for Advancing Translational Sciences (NCATS), 2013)
Hit rate of the full screen: of about 420,000 compounds, about 50,000 (12%) were called active. The inconclusive results got no clear call from the source; some entries with a clear call stand among them for comparison. The call rests on the fitted dose curve; in most records, active means well fitted inhibition curve with a large enough effect; inconclusive means small, poorly fitted or top-dose-only effect; inactive means flat fitted curve, though single readings scatter. Potencies of inconclusive entries are left out as doubtful fits.

test: qHTS for Inhibitors of human tyrosyl-DNA phosphodiesterase 1 (TDP1): qHTS in cells in presence of CPT; settings: chicken DT40 Tdp1-/-;hTDP1 cells + 20 nM CPT, ATP luminescence, 48 h; series mostly up to 46.2 µM; further: nearly all actives have a fitted effect of over 55% in size
In short: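 Chicken DT40 Tdp1-/- cells complemented with human TDP1, 400 cells/well, exposed to compounds plus 20 nM camptothecin for at least 48 h at 37 C; viability read as ATP content by CellTiter-Glo luminescence.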
Potency means the concentration at half of the fitted maximal effect; tags describe the fitted curve by direction and shape.

Structure (SMILES)	Potency
COc1ccc(S(=O)(=O)N2CCCCCC2)cc1C(=O)N(C)CCOc1ccc(Cl)cc1	active: 20.6 µM
COc1cc(NC(=O)COCc2cc(-c3ccc4c(c3)OCO4)on2)c(OC)cc1Cl	inconclusive [inhibitor, single point]
Cc1onc(-c2c(Cl)cccc2Cl)c1C(=O)N1CCc2ccccc21	inconclusive [inhibitor, partial curve]
CCCCCCCN1C/C=C\C(c2ccc(OC)cc2)N(Cc2ccc(F)cc2)C(=O)[C@H]1Cc1ccccc1 (some centres undefined)	inconclusive [inhibitor, single point]
CCCCN(CC)CCCNC(=O)c1ccc2c(c1)N(Cc1ccc(C)cc1)C(=O)c1ccccc1S2	active: 5.8 µM
COc1ccc(S(=O)(=O)n2c(N)nc3ccccc32)cc1	inconclusive [inhibitor, partial curve]
COCCCN(Cc1cc(OC)c(OC)c(OC)c1)C(=S)Nc1cccc(Cl)c1	inconclusive [inhibitor, single point]
O=C(NCC(c1ccco1)N1CCCCC1)c1ccc(S(=O)(=O)Nc2ccccc2)cc1 (centres undefined)	inconclusive [inhibitor, single point]
CC[C@H](C)[C@@H](C(=O)NCCCCCCCCCCC(=O)N1CCN(C(=O)OC(C)(C)C)CC1)n1cc(CCCCCNC(=O)OC(C)(C)C)nn1	active: 4.61 µM
Cc1cc(-c2ccc(C)c(S(=O)(=O)Nc3ccc(C)c(N(C)C)c3)c2)on1	inconclusive [inhibitor, single point]
Cc1ccccc1NC(=O)NC1CCS(=O)(=O)C1 (centres undefined)	inactive
COc1cc2ccccc2cc1C(=O)Nc1ccc(N2CCN(C)CC2)cc1	inconclusive [inhibitor, single point]
CC(OC(=O)CCc1nc(=O)c2ccccc2n1C)C(=O)NCc1ccc2c(c1)OCO2 (centres undefined)	inactive
COc1ncc2nc(-c3cccs3)c(=O)n(C)c2n1	inactive
Cc1c(C)c(C)c(S(=O)(=O)N2CCNCC2)c(C)c1C	inconclusive [inhibitor, single point]
CN1C(=O)/C(=C\c2cc(Br)cs2)c2ccccc21	inactive
O=S(=O)(c1ccc(NC(=S)Nc2ccccc2)cc1)N1CCOCC1	inactive
O=C(Nc1nc(-c2ccncc2)cs1)C1COc2ccccc2O1 (centres undefined)	active: 20.6 µM
CCCCN(C(=O)CCC(=O)Nc1cc(C)on1)C(C(=O)NC1CCCC1)c1ccccc1C (centres undefined)	inconclusive [inhibitor, single point]
Cc1ccc(NP(=O)(c2ccc(N(C)C)cc2NC(=O)c2cccs2)N2CCOCC2)cc1 (centres undefined)	inactive
O=C(NC1(C(F)(F)F)N=C(c2ccccc2)N(Cc2ccccc2)C1=O)c1ccc(F)cc1 (centres undefined)	active: 20.6 µM
Cc1ccc(C)c(NS(=O)(=O)c2ccc3c(c2)NC(=O)CO3)c1	inconclusive [inhibitor, single point]

Structure (SMILES)	Potency
C/C(=N\NC(=O)CNc1cccc(Cl)c1C)c1cccs1	inconclusive [inhibitor, single point]
CC1(C)Oc2ccc(C(=O)N/N=C/c3ccc(O)cc3)cc2NC1=O	inactive
COc1ccc(-c2noc3c2-c2nc(-c4ccccc4C)sc2CC3)cc1	inconclusive [inhibitor, single point]
CC(C)(C)OC(=O)NCCCCc1cn(CC(=O)N2CCN(C(=O)OC(C)(C)C)CC2)nn1	inconclusive [inhibitor, single point]
CCCC1(CCC)NC(=O)N(CC(=O)c2cc(C)n(-c3ccc4c(c3)OCO4)c2C)C1=O	inconclusive [inhibitor, single point]
CSc1ccc(S(=O)(=O)NCc2ccc(Cl)cc2Cl)cc1	inconclusive [inhibitor, single point]
Cc1ccc(C)c(N2CCN(C3CCCC(C)C3)CC2)c1 (centres undefined)	inconclusive [inhibitor, single point]
O=C(Nc1cccc(C(F)(F)F)c1)c1ccc2nc(-c3ccco3)c(-c3ccco3)nc2c1	active: 20.6 µM
COc1ccc(OC)c(Nc2nc(NCCO)c3ccccc3n2)c1	inconclusive [inhibitor, single point]
COCCCN1C(=O)C(CC(=O)NC(c2ccccc2)c2ccccc2)CC(C(=O)N2CCCCCC2)=C1C (centres undefined)	inconclusive [inhibitor, single point]
CCCc1nc(N2CCN(C)CC2)c2sc(=S)n(-c3ccccc3)c2n1	active: 18.4 µM
CCN(CC)c1ccc(/C=N/N2CCN(Cc3cccc4ccccc34)CC2)c(O)c1	inconclusive [inhibitor, partial curve, poor fit]
CN1CCN(S(=O)(=O)c2cccc(C(=O)N(C)Cc3cccs3)c2)CC1	inactive
Cc1cc(C)n2c(NC3CCCC3)c(-c3ccc(F)cc3)nc2n1	inconclusive [inhibitor, single point]
COc1ccc(NC(=O)/C(C#N)=C/c2ccc(OCc3ccccc3F)cc2)cc1	inactive
CCCC(CCC)C(=O)Oc1cc(C)[nH]c(=O)c1[N+](=O)[O-]	inactive
COc1ccc(-c2ccc(-c3nc4c(c(=O)[nH]c(=O)n4Cc4ccccc4)n3C)o2)c([N+](=O)[O-])c1	inconclusive [inhibitor, partial curve]
O=C(CSc1ncccn1)Nc1ccccc1	inactive
CC1CCN(S(=O)(=O)c2ccc3c(c2)N(CC(=O)N(C)Cc2ccccc2)C(=O)CO3)CC1	inconclusive [inhibitor, single point]
CCN(CC)c1cc(NC2CCCCC2)c2c3c(onc13)-c1ccccc1C2=O	inconclusive [inhibitor, single point]
COc1ccccc1CNC(=O)CSc1nc(N)c(C#N)c(-c2cccs2)c1C#N	inconclusive [inhibitor, single point]
O=C(COC(=O)c1ccc(Cl)c(S(=O)(=O)N2CCOCC2)c1)Nc1ccc2[nH]c(=O)[nH]c2c1	inactive
